Experimental data as given in PMC4336329 (PLoS ONE, 2015).
Hit rate of the full screen: of about 310,000 compounds, about 2,200 (0.71%) showed an effect of 50% or more. The effect is printed as a negative number. This is one part of the list.

biological target: human ether-à-go-go-related gene (hERG) potassium channel (human, UniProt Q12809); assay: primary screen, population patch clamp on CHO cells stably expressing hERG
Sequence (Q12809 whole entry, looked up): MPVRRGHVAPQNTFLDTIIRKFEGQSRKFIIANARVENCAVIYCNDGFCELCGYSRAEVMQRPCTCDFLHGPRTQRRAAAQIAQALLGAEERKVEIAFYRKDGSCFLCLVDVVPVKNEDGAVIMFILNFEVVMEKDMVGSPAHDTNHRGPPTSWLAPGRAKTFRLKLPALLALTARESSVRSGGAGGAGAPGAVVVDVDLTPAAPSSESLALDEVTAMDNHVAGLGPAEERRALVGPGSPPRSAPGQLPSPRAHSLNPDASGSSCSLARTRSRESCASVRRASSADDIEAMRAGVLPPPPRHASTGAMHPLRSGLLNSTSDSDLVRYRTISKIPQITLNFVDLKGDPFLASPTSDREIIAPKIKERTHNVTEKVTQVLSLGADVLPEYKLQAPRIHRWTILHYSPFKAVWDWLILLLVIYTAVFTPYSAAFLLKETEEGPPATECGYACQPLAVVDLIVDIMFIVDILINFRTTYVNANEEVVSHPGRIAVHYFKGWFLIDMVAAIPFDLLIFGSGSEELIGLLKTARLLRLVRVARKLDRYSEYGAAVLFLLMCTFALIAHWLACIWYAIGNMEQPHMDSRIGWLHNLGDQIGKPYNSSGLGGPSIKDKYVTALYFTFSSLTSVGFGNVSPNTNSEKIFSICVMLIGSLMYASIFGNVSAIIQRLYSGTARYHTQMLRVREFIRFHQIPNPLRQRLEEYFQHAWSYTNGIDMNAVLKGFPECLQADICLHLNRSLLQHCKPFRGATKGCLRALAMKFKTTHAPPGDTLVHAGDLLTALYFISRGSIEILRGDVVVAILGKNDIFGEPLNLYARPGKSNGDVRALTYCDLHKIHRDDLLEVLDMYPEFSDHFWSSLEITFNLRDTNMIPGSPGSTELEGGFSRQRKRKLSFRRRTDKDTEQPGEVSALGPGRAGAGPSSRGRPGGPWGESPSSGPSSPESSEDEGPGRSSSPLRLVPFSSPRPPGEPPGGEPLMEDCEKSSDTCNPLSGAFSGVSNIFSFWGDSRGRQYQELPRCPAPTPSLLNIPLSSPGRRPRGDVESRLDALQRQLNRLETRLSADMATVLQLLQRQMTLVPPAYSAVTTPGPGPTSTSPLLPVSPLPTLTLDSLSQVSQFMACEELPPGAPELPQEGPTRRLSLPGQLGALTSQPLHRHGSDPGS

SMILES | hERG current change (%, negative = inhibition) at 1uM
O=C(O)c1ccc(-c2ccc(-c3ccccc3)cc2)s1 | 8.38%
O=C(CCCOc1ccc(Br)cc1)NNC(=O)c1ccncc1 | 3.38%
CCOC(=O)c1c(C)[nH]c(C)c1C(=O)COC(=O)/C=C/c1cccc(C(F)(F)F)c1 | 17.4%
Cc1nn2cc(-c3ccccc3)nc2s1 | 9.28%
O=C(Nc1ccc2c(c1)OCO2)c1cccc(S(=O)(=O)N2CCCC2)c1 | 5.28%
CC(NC(=O)c1ccco1)C1CCCO1 (centres unmarked) | -9.1%
Cc1cn(-c2cc(C(=O)Nc3ccc(C)c(NC(=O)N4CCNC4=O)c3)cc(C(F)(F)F)c2)cn1 | 8.83%
COc1ccc(N2C(=O)C3CCCN3C2=O)cc1 (centres unmarked) | -4.76%
Cc1ccc(C)c(NC(=O)CNC(=O)N2CC(=O)Nc3ccccc32)c1 | 16.2%
CCC(C)c1ccc(OCCCCN2CCOCC2)cc1 (centres unmarked) | -2.59%
COc1nc2ccc(C)cc2cc1-c1noc(-c2ccccc2)n1 | 11.1%
CCc1ccc(-c2nc(CS(=O)CC(=O)NCCN3CCCCCC3)c(C)o2)cc1 (centres unmarked) | 1.25%
Cl.OCCN(CC#CC(O)(c1ccccc1)c1cccc(F)c1)CCO (centres unmarked) | 14.5%
COCc1cc(C)nc2sc(C(=O)NC3CCCCC3)c(N)c12 | 9.17%
Cc1cc(C)nc(SCc2ccc(C(=O)N/N=C3\CC(C)CC(C)(C)C3)cc2)n1 (centres unmarked) | 8.85%
CCOC(=O)c1cnc(SCC(=O)Nc2nnc(CC)s2)nc1N | 12.6%
COCCCNS(=O)(=O)c1ccc(SC)cc1 | 8.83%
CCOC(=O)C(NC(=O)CC)(Nc1ccc(C(O)(C(=O)OCC)C(F)(F)F)cc1C)C(F)(F)F (centres unmarked) | 6.23%
CC(/C=N/n1c(-c2cc(C)[nH]n2)n[nH]c1=S)=C\c1ccccc1 | 15.2%
COc1cc2c(cc1OC)CN(C(=O)CSc1n[nH]c(N)n1)CC2 | 11%
CN(Cc1cn(C)nc1-c1ccccc1F)CC1CCCCO1 (centres unmarked) | 7.71%
CCOP(=O)(OCC)C(O)c1ccc(OC)c(OC)c1 (centres unmarked) | 13.2%
COC(=O)COc1ccc(S(=O)(=O)NCc2ccco2)cc1 | 7.98%

SMILES | hERG current change (%, negative = inhibition) at 1uM
Cc1cccc(CN2CCCC(C(=O)N3CCCCC3)C2)c1.O=C(O)C(=O)O (centres unmarked) | 9.42%
Cc1c(NC(=S)N2CCN(c3ccc(F)cc3)CC2)c(=O)n(-c2ccccc2)n1C | 8.35%
Cc1cc(NC(=O)CCC(=O)N(C2CC2)C2(C(=O)NC3CCCC3)CCC(C)CC2)no1 (centres unmarked) | 3.79%
O=C(NC1CCCCC1)C(c1ccc(F)cc1)N(C(=O)c1csnn1)C1CC1 (centres unmarked) | 13%
Cc1cccc(OCCCN2CCOCC2)c1C | 12.8%
CCN(CC)S(=O)(=O)c1ccc(-c2nnc(SCC(=O)N3c4ccccc4CC3C)n2CC)cc1 (centres unmarked) | 7.89%
COc1ccccc1/C=C/C(=O)NC(=S)Nc1ccc(S(=O)(=O)N(C)c2ccccc2)cc1 | 12.3%
Cc1cc(NC(=O)CSCC(=O)OCC(=O)Nc2ccc(OC(F)F)cc2)no1 | 4.09%
CN1C(=O)C(C)(C)c2cc(S(=O)(=O)NCC3CCC(C(=O)NCc4ccccc4)CC3)ccc21 (centres unmarked) | 9.43%
O=[N+]([O-])c1cccnc1N1CCC(c2cc(-c3cccc(C(F)(F)F)c3)n[nH]2)CC1 | -17.4%
O=C(CN1C(=O)NC2(CCCCCCC2)C1=O)NC1CCCc2ccccc21 (centres unmarked) | 10.6%
COc1ccc(Nc2cc(C)nc3nc(C)nn23)c(OC)c1 | 3.76%
COC(=O)CN1C(=O)COc2ccc(S(=O)(=O)NCc3ccccc3)cc21 | 11.4%
O=C(C[n+]1cn(C(F)F)c2ccccc21)c1ccc(OC(F)F)cc1.[Br-] | -53.7%
COc1ccccc1NC(=O)c1cc[n+](C)cc1.[I-] | 12.8%
CNc1cc(C)nc(-n2nc(C)cc2C)n1 | 1.09%
Cc1sc(NC(=O)COc2cccc(-n3cnnn3)c2)c(C#N)c1C | 3.36%
Cc1ccc2[nH]c(C(F)(F)F)cc(=O)c2c1 | 15.4%
Cc1cnc(-n2c(=S)[nH]c3ccccc3c2=O)s1 | 6.53%
O=C(Nc1nnc(-c2ccncc2)s1)Nc1ccccc1F | 14.4%
CCn1cc(/C=N\NC(=O)C2(C)CC2(Cl)Cl)c(C)n1 (centres unmarked) | 11.6%
O=C(NCC(c1ccc(F)cc1)N1CCOCC1)c1cccnc1Sc1ccc(Cl)cc1 (centres unmarked) | 7%
COc1ccc(-c2nnc3n(CCc4ccccc4)c(=O)c4ccccc4n23)cc1OC | 10.4%

SMILES | hERG current change (%, negative = inhibition) at 1uM
CCOC(=O)c1cnn(CCOC(=O)Cc2cccs2)c1NC(=O)Cc1cccs1 | -1.4%
O=C(O)C/C(=C\c1ccc2c(c1)OCO2)c1nc2ccccc2s1 | 1.16%
CC1Cc2cc(/C=C3/SC(=S)N(C)C3=O)ccc2O1 (centres unmarked) | 11.7%
COC(=O)C1=C(c2ccccc2OCc2ccccc2)C[C@@H]2CC[C@H]1N2C(=O)NCc1ccc(Br)cc1 | 11.8%
O=C(CCCn1c(=O)[nH]c2cc(Cl)ccc2c1=O)NC1CCCCCCC1 | 4.63%
COc1ccc2oc(C(=O)OC/C(O)=C(\C#N)c3nc4ccccc4[nH]3)c(C)c2c1 | 7.65%
COC(=O)C1=C(c2ccc(-c3ccccc3)c(F)c2)C[C@@H]2CC[C@H]1N2C(=O)NCCOc1ccc(OC)cc1 | 11.2%
Cc1c(S(=O)(=O)N2CC(C)CC(C)C2)c(=O)n(C)c(=O)n1C (centres unmarked) | 1.33%
C/C(N)=C(/C#N)C(=O)COC(=O)c1ccccc1Oc1ccccc1 | 14.1%
Cc1cccc(N2CCN(Cc3nc(-c4cccc(Oc5ccccc5)c4)oc3C)CC2)n1 | 9.83%
N#C/C(=N/Nc1ccc(S(=O)(=O)N2CCOCC2)cc1)C(N)=O | 4.44%
COc1ccc(N2C(=O)C3ON(C4SC(=S)N(C)C4(C)C)C(c4ccc([N+](=O)[O-])cc4)C3C2=O)cc1 (centres unmarked) | 15.7%
Cc1ccc(/C=N/n2c(-c3cccnc3)n[nH]c2=S)s1 | 11.6%
CCCCN1C(=O)C(=O)N(CC(=O)c2cc(C)n(C3CC3)c2C)C1=O | -3.84%
Cc1nc2ccc(F)cc2cc1C(=O)Nc1cccc(Cl)c1C | 13.2%
CCCn1c(=O)c(C(=O)NCc2ccccc2OC)c(O)c2ccccc21 | 17.4%
CN(/N=C/c1ccc(Br)o1)C1=NS(=O)(=O)c2ccccc21 | 11.1%
O=c1c2ccccc2c(/C=N/c2ncn[nH]2)c(O)n1Cc1ccccc1 | 20%
Cc1ccccc1-n1nnnc1-c1ccccc1 | 6.66%
CC(C)Oc1ccc(NC(N)=O)cc1 | 3.01%
CCC(=O)N(C)/C=C1\Sc2ccccc2C1=O | 2.8%
O=C(C1CC1)N1N=C2CCCCC2C1(O)C(F)(F)F (centres unmarked) | 24.6%
COc1ccc(N2CC(O)=C(c3nc(-c4ccc(F)cc4)cs3)C2=N)cc1Cl | 0.998%

SMILES | hERG current change (%, negative = inhibition) at 1uM
O=c1[nH]oc2cc(Cl)ccc12 | 8.58%
CO/N=C/NC(=O)NOCc1ncc(C(F)(F)F)cc1Cl | 10.8%
O=C(NCc1ccc(OC(F)(F)F)cc1)C1CC(c2ccc(C(F)(F)F)cc2)=NO1 (centres unmarked) | 9.31%
CN(C)S(=O)(=O)c1cccc(NC(=O)c2ccc3c(c2)OCCO3)c1 | -5.59%
N#Cc1ccc(OCC(=O)Nc2cccc(S(=O)(=O)NC3=NCCCCC3)c2)cc1 | 9.67%
CCOc1ccc(-c2cc(C(=O)N/N=C(\C)c3cccnc3)c3ccccc3n2)cc1 | 10.9%
COc1ccc([C@@H]2C(C#N)=C(N)S[C@@H](c3ccccc3)[C@@H]2[N+](=O)[O-])cc1 | -2.75%
Cc1nccc(-c2cccc(N/N=C(\C#N)C(=O)c3ccccc3)c2)n1 | 7.67%
COCC(=O)N1CCC(Oc2ccc(C(=O)N3CCCCCC3)cc2)CC1 | 10%
CC(C)c1ccc(NC(=O)C2CCC(CNC(=O)[C@@H]3Cc4ccccc4CN3)CC2)cc1 (some centres unmarked) | 10.3%
O=C(CN(CCc1ccccc1)C(=O)c1csnn1)NC1CCCC1 | 0.269%
CCOC(=O)C(Cc1ccccc1)C(=O)c1ccco1 (centres unmarked) | 14.6%
C/C(=N\O)C(=O)NCc1ccncc1 | 12.8%
COc1ccc(C(=O)Nc2nnc(-c3ccccc3)o2)cc1OC | 9.86%
COc1ccc(N2CCN(CCCNC(=O)CN3C(=O)COc4ccccc43)CC2)cc1 | 4.56%
COc1ccccc1/C=N/NC(=O)c1ccc(N(C)S(=O)(=O)c2ccccc2)cc1 | 8.23%
O=C(CCSc1nnc(-c2ccccc2)o1)N1CCOCC1 | 10.1%
CC(C)NC(=O)c1cc(=O)n(C)c(=O)n1C | 12.3%
C=CCN1C(=O)C(Cc2ccccc2)SC1=Nc1ccc(C(=O)O)cc1 (centres unmarked) | 15.9%
COc1ccc(NC(=O)Nc2ccc3c(c2)CCC3)cc1OC | 17.4%
